PubChem BioAssay AID1631 (National Center for Advancing Translational Sciences (NCATS), 2009)
Screen size: about 260,000 compounds; about 890 (0.34%) were called active. This list was built around the results that the source calls inconclusive (neither active nor inactive); the mix of calls is not that of the screen. The call rests on the fitted dose curve; in most records, active means well fitted activation curve with a large enough effect; inconclusive means small, poorly fitted or top-dose-only effect; inactive means no such curve, though single readings can be large or run the other way. No potency is given beside an inconclusive call; the fits are too rough.

What follows are compounds tested against Pyruvate kinase PKM (Homo sapiens) (UniProt P14618) (assay: qHTS Assay for Activators of Human Muscle isoform 2 Pyruvate Kinase). Details: purified PKM2, Kinase-Glo ATP luminescence; Potency: activation; activation: at 57.5 µM (top of the series), 0% is enzyme alone, no compound.
UniProt P14618, sequence (P14618 whole entry, looked up, canonical isoform): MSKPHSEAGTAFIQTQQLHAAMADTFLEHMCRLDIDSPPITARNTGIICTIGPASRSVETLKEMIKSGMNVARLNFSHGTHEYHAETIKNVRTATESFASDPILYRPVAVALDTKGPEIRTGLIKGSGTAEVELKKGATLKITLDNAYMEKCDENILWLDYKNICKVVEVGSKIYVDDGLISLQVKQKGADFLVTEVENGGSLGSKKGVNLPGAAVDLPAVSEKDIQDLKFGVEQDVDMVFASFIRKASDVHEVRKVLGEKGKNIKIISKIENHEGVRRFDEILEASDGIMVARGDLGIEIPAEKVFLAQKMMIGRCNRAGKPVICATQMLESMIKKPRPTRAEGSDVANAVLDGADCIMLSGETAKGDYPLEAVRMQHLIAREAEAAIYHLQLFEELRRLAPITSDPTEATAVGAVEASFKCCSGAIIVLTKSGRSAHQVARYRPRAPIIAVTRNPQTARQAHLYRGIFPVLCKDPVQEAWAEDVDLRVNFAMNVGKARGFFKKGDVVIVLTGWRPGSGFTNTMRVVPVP
Outline: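 ATP formation by purified human PK-M2, quantified via coupled luciferase luminescence after 1 h at room temperature with 0.1 mM ADP and 0.5 mM PEP final.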
Further: nearly all actives have a fitted effect of over 55% in size.
On the % scale 0 is the no-effect control and ±100 the full control effect; potency means the concentration at half of the fitted maximal effect; tags describe the fitted curve by direction and shape.

SMILES	activation	Potency
COc1ccc(C2=CC3=C(Br)C(=O)C(C)(O)C(=O)C3=CO2)cc1 (stereo not given)	inactive: 0.186%	
O=C(/C=C/c1ccc(Cl)cc1)N1CCN(c2ccc([N+](=O)[O-])c(N3CCOCC3)c2)CC1	inactive: -9.81%	
O=C(/C=C/c1ccco1)Nc1cccc(C(=O)Nc2ccccc2C(=O)O)c1		inconclusive [rising, partial curve]
CCCS(=O)(=O)N1CCN(S(=O)(=O)c2ccccc2)CC1		inconclusive [rising, partial curve]
Oc1ccc(/C=N/N2CCN(C3c4ccccc4-c4ccccc43)CC2)cc1O		inconclusive [rising, single point]
CCn1c(SCC(=O)N2c3ccccc3Sc3ccccc32)nnc1-c1ccco1		inconclusive [rising, single point]
Cc1ccc(OCC(=O)NCCc2nc3ccccc3[nH]2)c(C)c1		inconclusive [rising, single point]
COc1ccc(-c2noc(CCCC(=O)O)n2)cc1	inactive: -6.53%	
COC(=O)CN(c1ccccc1F)S(=O)(=O)c1ccc(C)cc1		inconclusive [rising, single point]
CN(C)S(=O)(=O)c1cccc(-c2nn(-c3ccccc3)cc2/C=C2\SC(=S)N(CC(=O)O)C2=O)c1		inconclusive [rising, single point]
Cc1oc(-c2cc(F)ccc2F)nc1CN1CCN(c2cnccn2)CC1		inconclusive [rising, single point]
CCOC(=O)C(CSCC(=O)c1ccc(Cl)cc1Cl)NC(=O)OC(C)(C)C (stereo not given)		inconclusive [rising, partial curve]
CCc1cccc(NS(=O)(=O)c2ccc(-n3cccn3)cc2)c1		inconclusive [rising, single point]
CCn1c(SCC(=O)N2CCN(c3ccccc3)CC2)nnc1-c1c[nH]c2ccccc12	inactive: -1.52%	
COC(=O)c1ccc(CSc2nc(C)nc3sc(C)c(C)c23)o1		inconclusive [rising, partial curve]
Cn1nccc1C(=O)N1CCN(c2ncccn2)CC1		inconclusive [rising, partial curve, poor fit]
Cc1ccc(C(=O)N/C(=C\c2cn(S(=O)(=O)N(C)C)c3ccccc23)C(=O)NCCN2CCOCC2)cc1		inconclusive [rising, single point]
Cc1ccc(CSc2nnc(Nc3ccc(C)cc3)s2)cc1	inactive: -1.64%	
COc1ccc(OC)c(C2NC(=O)c3sc(=S)n(-c4ccccc4)c3N2)c1 (stereo not given)		inconclusive [rising, single point]
COc1ccc(C(=O)NCc2oc(-c3ccccc3)cc2C(=O)O)cc1		inconclusive [rising, single point]
O=S(=O)(Nc1cc(Sc2cccc3cccnc23)c(O)c2ccccc12)c1ccccc1		inconclusive [rising, full curve]
O=c1[nH]c2cc3c(cc2cc1CN(Cc1ccccc1)Cc1nnnn1Cc1ccco1)OCCO3		inconclusive [rising, partial curve]
Cc1ccc(NC(=S)N2CCN(S(=O)(=O)c3ccc(C)cc3)CC2)cc1		inconclusive [rising, partial curve]

SMILES	activation	Potency
O=C(O)c1ccc(OCCOc2ccccc2)cc1		inconclusive [rising, single point]
Cc1ccc2nc(-c3ccccn3)oc2c1	inactive: -44.2%	
CCOCCc1nnc(NC(=O)c2cc(OC)c(OC)c(OC)c2)s1		inconclusive [rising, partial curve, poor fit]
O=C(Nc1ccc(-c2ccc3nncn3n2)cc1)c1ccc(Br)o1		inconclusive [rising, single point]
CCC1=C2CC[C@H]3C(=O)N(CC)C(=O)[C@H]3[C@H]2[C@@]2(C)C(=NCCc3c[nH]c4ccccc34)OC(=O)N2C1=O	inactive: -0.999%	
OCCN1CCN(C(=S)c2ccc(Cl)cc2)CC1	inactive: 0.0772%	
COc1ccccc1OCc1nc(C#N)c(N2CCCC2)o1		inconclusive [rising, single point]
CCCCCCC(C)n1[nH]c(=O)c2c(C)cc(=O)[nH]c21 (stereo not given)		inconclusive [rising, partial curve]
CCOc1ccc(Br)cc1S(=O)(=O)NCc1ccc(S(N)(=O)=O)cc1		inconclusive [rising, single point]
Cc1n[nH]c(C)c1Cc1c(F)cccc1Cl	inactive: 0.664%	
Cn1c2ccc(F)cc2c2nnc(SCC(=O)Nc3cccc(O)c3)nc21		active: 0.316 µM
CCCS(=O)(=O)c1c(S(=O)(=O)CCC)c2c(C)cccn2c1C(=O)N/N=C/c1cc(O)cc(O)c1		inconclusive [rising, single point]
COC(=O)c1c(N2C(=O)CC(Sc3ncccc3C(=O)O)C2=O)sc(C)c1C (stereo not given)		inconclusive [rising, single point]
CCCCCCCCCCCC(=O)N1CC(=O)NC(=O)C1	inactive: 2.25%	
COc1cccc(N2CCN(C(=O)CN(c3ccc(C)cc3)S(=O)(=O)c3c(C)n[nH]c3C)CC2)c1		inconclusive [rising, full curve, poor fit]
O=C(CSC1=NCCS1)Nc1nc2c(s1)CCCC2		inconclusive [rising, full curve]
CCC1=NN(C(=O)Cc2ccc(OC)c(OC)c2)C(O)(C(F)(F)F)C1 (stereo not given)	inactive: 3.02%	
Clc1cccc(Cl)c1COc1ccccc1CNn1cnnc1		inconclusive [rising, partial curve]
CCOC(=O)/C(C#N)=C1\C(=O)N(Cc2ccccc2)c2ccccc21		inconclusive [rising, single point]
CCSc1nnc(NC(=O)Cc2cccc(OC)c2)s1		inconclusive [rising, partial curve]
C=CCC(C=C)S(=O)(=O)c1ccc(C)cc1 (stereo not given)	inactive: -0.783%	
C/C(=N\NC(N)=S)C1C2C3CC4C5CC(C42)C1C53 (stereo not given)	inactive: 5.2%	
